{
  "source": "the RNAGym collection of RNA variant scans (doi:10.7554/elife.90254)",
  "parents": {"B1": {"name": "LINE1-mini (parent)", "chain": "GGCAGAGCUCAACACAGCGUGGCAAAGUGGCUGUGGCUAGACUGCC"}},
  "note": "Read counts are not given, so values of variants with three or more changes are uncertain.",
  "data": [
    {"variants_of": "B1", "assay": "self-cleavage, relative activity (ratio to wild type); higher = more cleavage; in vitro, sequencing; the parent is a self-cleaving ribozyme", "values": [
      {"variant": "GGCAGUGCUCAACACAGCGUGGCAAUAUGGCUGUGGCUAGACUGCC", "note": "[A6U A26U G27A]", "self-cleavage": 0.19},
      {"variant": "GGCAUAGCUAAACAGAGCGUGGCAAAGUGGUUGUGUCUUGACUGCC", "note": "[G5U C10A C15G C31U G36U A39U]", "self-cleavage": 0.01},
      {"variant": "GCCAGAGCUCAACAAAGCGUGGCAAAGAGGCUGUGGCUAGACUGCC", "note": "[G2C C15A U28A]", "self-cleavage": 0.04},
      {"variant": "GGCAGAGCACAACACAGCGCGGCAAAGUGGGUGUGGCUAGACUGGU", "note": "[U9A U20C C31G C45G C46U]", "self-cleavage": 0.07},
      {"variant": "GGCAGAGCUCAACACAGCGUAGCAAAGUGGCUGUAGCUAGACUGGC", "note": "[G21A G35A C45G]", "self-cleavage": 0.13},
      {"variant": "GGCCGAGCUCAACACAGCGUGGCAAAGUUCCUGUGGUUAAACUGCC", "note": "[A4C G29U G30C C37U G40A]", "self-cleavage": 0.01},
      {"variant": "GGCAUAGCUGAUCACAGCGUGGCAAAGUGGCUGUGGAAAGACUGCC", "note": "[G5U C10G A12U C37A U38A]", "self-cleavage": 0.01},
      {"variant": "GGCUGAGCUCAACACAGCGUUGCAAAGUAGCUGUGGCUAGACUGCC", "note": "[A4U G21U G29A]", "self-cleavage": 0.04},
      {"variant": "GGCAGCGCUCAACACAGCGUGGCAAAGUGGCUGUUGCUGGACUGCC", "note": "[A6C G35U A39G]", "self-cleavage": 0.24},
      {"variant": "CGCUGAGAUCAACACAGCGUGGCAAAGUGGCUGUGGCUAGACUGCC", "note": "[G1C A4U C8A]", "self-cleavage": 0.16},
      {"variant": "GGCAGAGCUCAACACGGAGUGGCACAGUGGCUGUGGCUAGACUGCC", "note": "[A16G C18A A25C]", "self-cleavage": 0.03},
      {"variant": "GGCAGAGCUCGACACAGCGUUGCAAAGUGGCUGUGACUAGACCGCG", "note": "[A11G G21U G36A U43C C46G]", "self-cleavage": 0.05},
      {"variant": "GGCAGAGCUCUACGCAGCGUGGCAAAGUGUCUUUGGAUAGUCUGCC", "note": "[A11U A14G G30U G33U C37A A41U]", "self-cleavage": 0.01},
      {"variant": "GGCCGAGUUCAACACAGCGUGGCAAAGUGGCCGUGGCUAGACUGCC", "note": "[A4C C8U U32C]", "self-cleavage": 0.09},
      {"variant": "GGCAGAGCUAAGCACAGCGUGGCAAAGUGGCUCUGGCUAGACUGCC", "note": "[C10A A12G G33C]", "self-cleavage": 0},
      {"variant": "GGCAUUGCUCAGCACAGCUUGGCAACGUGGCUGUGGCUAGACUGUC", "note": "[G5U A6U A12G G19U A26C C45U]", "self-cleavage": 0.02},
      {"variant": "GGCAGAGCUCAACACAGCGUAGCAAAUUGGAUUUGCCUAGACUGCC", "note": "[G21A G27U C31A G33U G36C]", "self-cleavage": 0.08},
      {"variant": "GGCAGAGCUCAACAUAGCGUGGCAAACUAGCUGUGGCUAGACUGCC", "note": "[C15U G27C G29A]", "self-cleavage": 0.26},
      {"variant": "GCGAAAGCUCAGCACAGCGCUGCAAACUGGCUGUGGCUAGACUGCC", "note": "[G2C C3G G5A A12G U20C G21U G27C]", "self-cleavage": 0.07},
      {"variant": "GGCAGAGCUCAACAUUGCCUGGCAAAGCGGCAGUGGCUAGACUGCC", "note": "[C15U A16U G19C U28C U32A]", "self-cleavage": 0.92},
      {"variant": "GGCAGAGCUCAACACAGCGUGGCAAUGUGGCAGGGGCUAGACUGCC", "note": "[A26U U32A U34G]", "self-cleavage": 0.01},
      {"variant": "UGCAGAGCCCAACGCAGCGUGGCAAAGUGGCUGUGGCUAGACUGCC", "note": "[G1U U9C A14G]", "self-cleavage": 0.03},
      {"variant": "GGCAGAGCUCAACACAGCGUGGUAAAGUGGGUUUGGCUAGGAUGGC", "note": "[C23U C31G G33U A41G C42A C45G]", "self-cleavage": 0.01},
      {"variant": "GGCAGUGCUCAACACAAAGUGGCAAAGUGCCUGUGGCUAGACUGCC", "note": "[A6U G17A C18A G30C]", "self-cleavage": 1.14},
      {"variant": "GGCUGAGCCCAACACAGCGUGGCAAAUUGGCUGUGGCUAGACAGCU", "note": "[A4U U9C G27U U43A C46U]", "self-cleavage": 0.01},
      {"variant": "GGCAUAGCGCAACACAGCGUGGCAAUGUGGCAGUGGCUAGACUGCC", "note": "[G5U U9G A26U U32A]", "self-cleavage": 0.19},
      {"variant": "GGCAGAGCUCAACACAGCGUGGCACAGUAGCCUAGGCUAGACUGCC", "note": "[A25C G29A U32C G33U U34A]", "self-cleavage": 0.04},
      {"variant": "GGCAGAGCUCAACACAUCGUUGCAAAGUAGCUGUGGCUAGACUGCC", "note": "[G17U G21U G29A]", "self-cleavage": 1.81},
      {"variant": "GUCAGAACUCAUCACAGCGUGGCAAAGUGGCUGUGGAUAGACAGCC", "note": "[G2U G7A A12U C37A U43A]", "self-cleavage": 0.04},
      {"variant": "GGCAGAGCUCGAGACAGCGUGGCAAUGUGGCUGUGGCUAGACUGCC", "note": "[A11G C13G A26U]", "self-cleavage": 0.02},
      {"variant": "GUCAGAGCUGAACACAGCGUGGCAAAGUGGCUGUGGCUAGACUACC", "note": "[G2U C10G G44A]", "self-cleavage": 0.01},
      {"variant": "GGCAUAGCUCAACGAAGCGUGGCAAAGUGGCUGUGGCUAGACUGAC", "note": "[G5U A14G C15A C45A]", "self-cleavage": 0},
      {"variant": "GGCAGGGCUCAACACAGCGUGGCAAAGUGGCUGUGCUUAGACUGGU", "note": "[A6G G36C C37U C45G C46U]", "self-cleavage": 0},
      {"variant": "GGCAGAGCUCAACACAGCGUGGCAAAGAGGCUGUGGCUAGACUGGG", "note": "[U28A C45G C46G]", "self-cleavage": 0.02},
      {"variant": "GGCAGAGCUCAACACAGAGUGGCAAAGUGUCUGUGGCUAGAAUGCC", "note": "[C18A G30U C42A]", "self-cleavage": 0.2},
      {"variant": "GGCAGAGCUCAACAGAGCGGGGCAAAGUGGCUGUGGCUAGACCGGC", "note": "[C15G U20G U43C C45G]", "self-cleavage": 0.02},
      {"variant": "GGCAGAACUCAUCAAAGCAUGGCAAAGUGGCUGUGGCUAGACUGCC", "note": "[G7A A12U C15A G19A]", "self-cleavage": 0.31},
      {"variant": "GGCAGAGCUCACCACAGCGUGGCAAAGUGGCUGCGGCUAGACGGCC", "note": "[A12C U34C U43G]", "self-cleavage": 0.01},
      {"variant": "GGCAGAGCUCAACACAGCGUGGUCAAGUGGUAGUGGGUAGACUGCC", "note": "[C23U A24C C31U U32A C37G]", "self-cleavage": 0.02},
      {"variant": "GGCAGACCUCCACACAGCGUGGCAAAGUGGCUAUGGCUAGACUGCC", "note": "[G7C A11C G33A]", "self-cleavage": 0.04},
      {"variant": "GCCAGAGCUCAACACAGCGAGGCAAAGUGGCUGUGUAUAGACUGCC", "note": "[G2C U20A G36U C37A]", "self-cleavage": 0},
      {"variant": "GGCAGAGUUCAACACAGUGUGGCACAGUGGCUGGGGCUAGACUGCC", "note": "[C8U C18U A25C U34G]", "self-cleavage": 0.03},
      {"variant": "GGCAGAGCUGCACACAGCGUGGUAAAGUGGCUGUGGCUAGACUGCC", "note": "[C10G A11C C23U]", "self-cleavage": 0},
      {"variant": "GGCAGAGCUCAACACAGCGUUGCAAAGUGGAUGUGGCUCGACUGCC", "note": "[G21U C31A A39C]", "self-cleavage": 0.1},
      {"variant": "AGCGGUGCUCAACACAGCGUGGCAAAGUGGCAGUGGCUAGACUGCC", "note": "[G1A A4G A6U U32A]", "self-cleavage": 0.04},
      {"variant": "GGCAUAGCUCAACACAACGUGGCAAAGGGGCUGUGGAUAGAUUGCC", "note": "[G5U G17A U28G C37A C42U]", "self-cleavage": 0.09},
      {"variant": "GGCAAAGCUCAACACAGCUUGGCAACGUGGCUGUGGCUAGACUGCC", "note": "[G5A G19U A26C]", "self-cleavage": 0.07},
      {"variant": "GGCAGAGUUCAACACAGCGUGACAAAGUGGCUGUGACUAGACUUCC", "note": "[C8U G22A G36A G44U]", "self-cleavage": 0.09},
      {"variant": "GGCAGAGCUCAACACAGAGUUGCACAGUGGCUGGGGCUAGACUGCC", "note": "[C18A G21U A25C U34G]", "self-cleavage": 0.05},
      {"variant": "GGCCGAGCACAACACAGCGUGGCAUAGUGGCUGUGGCUGGACUGCC", "note": "[A4C U9A A25U A39G]", "self-cleavage": 0.08},
      {"variant": "GGCAGAGCACAUCACAGCGUGGCAAAGUGGCUGUGGCUAGACCGCC", "note": "[U9A A12U U43C]", "self-cleavage": 0.05},
      {"variant": "GGCAGAGGUCAAUCCAGCGUGGCAAAGUGGCUGUGGCUAGACUACC", "note": "[C8G C13U A14C G44A]", "self-cleavage": 0.1},
      {"variant": "GGCAGAGUUCAACACAGCGUCGCAAAGUGGCUGUGGCCAGACUGCC", "note": "[C8U G21C U38C]", "self-cleavage": 0.06},
      {"variant": "GGCUGAGCUCGACACAGCGUGGCAAAGUGGCUGUGGCUAGAAUGCC", "note": "[A4U A11G C42A]", "self-cleavage": 0},
      {"variant": "GGCAGAGCUCAACACAGCAUGGCAAAGUCGCUGCGGCUACACUGCC", "note": "[G19A G29C U34C G40C]", "self-cleavage": 0.12},
      {"variant": "GGCAGAUCUCAACACACCGUGGCAACGUGGCUGUGGCUAGACUGAC", "note": "[G7U G17C A26C C45A]", "self-cleavage": 0}
    ]}
  ]
}
